# From the supplement of paper PMC7335073
# In all, about 4,100 sequences were measured (“relative CpG methylation activity (normalised to average over all NNNCGNNN flanks)”: median about 0.94, highest 2% from about 1.9 on). This is one part of the list.
# Target: DNMT3B catalytic domain (mouse) (UniProt O88509)
# Experiment: relative CpG methylation activity (normalised to average over all NNNCGNNN flanks) (relative (1 = mean)); higher = more methylation of the central CpG
# Conditions: system: in vitro, murine catalytic domain; CpG state: hemimethylated substrate pool; residues: 558-859
# How it was run: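 For Illumina sequencing, DNA was processed by proteinase K, BsaI-HFv2 digestion, hairpin ligation, bisulfite conversion and two-step PCR after methylation by murine DNMT3A or DNMT3B catalytic domain. The methylation reaction contained 0.8 mM S-adenosyl-L-methionine in HEPES pH 7.5 buffer and ran at 37 °C for 60 min on pooled dsDNA substrates with a central CpG inside 10 random flanking nucleotides. Relative methylation activity was computed as the average methylation of each flanking context divided by the mean over all contexts. Contexts covered three flanking bases per side, and there were two independent repeats per experiment.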
# UniProt O88509, sequence (O88509 558-859): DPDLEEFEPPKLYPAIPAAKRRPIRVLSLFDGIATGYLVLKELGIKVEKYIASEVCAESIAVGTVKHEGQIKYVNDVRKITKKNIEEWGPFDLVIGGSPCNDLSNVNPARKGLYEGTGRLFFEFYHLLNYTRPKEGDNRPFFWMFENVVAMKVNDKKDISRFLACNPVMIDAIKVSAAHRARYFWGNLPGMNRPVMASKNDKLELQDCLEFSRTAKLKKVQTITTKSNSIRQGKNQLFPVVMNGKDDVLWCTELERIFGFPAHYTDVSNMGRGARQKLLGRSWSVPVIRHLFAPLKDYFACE
row,Sequence,relative CpG methylation activity
1,ACGCGGCT,1.34
2,AGCCGACG,0.572
3,GTCCGATT,1.27
4,CCGCGTGA,0.505
5,CTTCGGGA,1.7
6,TACCGCGC,0.388
7,GCGCGGAA,0.631
8,CTGCGGAG,0.811
9,TTGCGCTC,1.18
10,AGGCGGGA,0.382
11,TACCGAAG,0.809
12,TCGCGTGC,0.524
13,ATTCGATA,1.54
14,ATACGGAC,1.59
15,CAGCGGGA,0.811
16,GAGCGCCA,0.656
17,CACCGCAG,0.317
18,CGTCGACC,1.27
19,ATGCGTTT,0.585
20,CCTCGCGT,0.512
21,GCTCGGAC,0.945
22,ATTCGCTT,0.878
23,GCCCGAGG,1.27
24,AATCGGAG,0.619
25,AGGCGGAT,0.466

row,Sequence,relative CpG methylation activity
1,AACCGCCC,0.539
2,TGCCGCTA,0.403
3,TACCGAGG,0.949
4,GACCGTTG,0.161
5,TGACGGAA,1.06
6,CGGCGAGC,1.01
7,TCACGGGT,1.3
8,TACCGCCT,0.791
9,GGACGAAT,1.03
10,CTACGCGT,1.43
11,TAGCGCTA,0.422
12,AAGCGGCT,0.846
13,TGGCGGAT,0.475
14,GTCCGGTG,1.39
15,ACCCGCCG,0.82
16,CCGCGTAC,0.89
17,AATCGAGC,1.85
18,CACCGGAA,0.647
19,CACCGATG,1.19
20,CTTCGGGC,2.18
21,GTGCGGAG,0.588
22,GATCGTGG,0.219
23,TTGCGACG,1.27
24,GCACGATA,1.45
25,TGTCGAGT,1.05

row,Sequence,relative CpG methylation activity
1,CATCGGAC,1.02
2,TGGCGGAG,0.487
3,TGGCGCTG,0.26
4,CACCGTCC,0.794
5,AATCGCCG,0.91
6,AAGCGACA,0.795
7,GACCGGTG,0.741
8,TTACGAAT,1.76
9,ATACGATG,1.63
10,GAGCGAGC,0.934
11,GATCGCTG,0.405
12,TGCCGGCG,1.03
13,CCTCGACT,1.22
14,CTCCGAAC,1.87
15,CCCCGTTG,0.456
16,CGTCGACA,1.23
17,TCCCGAAC,1.57
18,TGGCGGTA,0.386
19,ATCCGGTT,1.46
20,TAGCGAAC,0.912
21,TACCGAGC,1.53
22,GTGCGCGC,1.06
23,CAACGTTC,1.08
24,AGGCGACG,0.67
25,GTGCGCTT,1.14

row,Sequence,relative CpG methylation activity
1,TGACGGTT,0.917
2,TGGCGTGG,0.136
3,TTCCGCAG,0.808
4,CGCCGCAT,0.251
5,CGGCGGTT,0.459
6,GACCGCCG,0.483
7,TAACGTGA,0.575
8,GACCGCAT,0.313
9,GTCCGGCG,1.76
10,AACCGTAG,0.152
11,TCGCGACG,0.833
12,AGACGCCC,1.46
13,TCCCGAGT,1.34
14,CTGCGATA,1.22
15,GTTCGCTT,0.867
16,CCGCGCTT,0.819
17,AAACGTGT,0.636
18,ATTCGAGT,1.28
19,TGACGCAC,0.811
20,GCTCGATG,1
21,TTTCGTAA,0.65
22,ACGCGGTC,1.14
23,GCACGCTT,1.05
24,ATCCGTTC,0.92
25,TGCCGCGC,0.424

row,Sequence,relative CpG methylation activity
1,GCGCGTAT,0.946
2,AATCGATA,1.62
3,GCGCGGTG,0.568
4,CAGCGTGC,0.439
5,CTTCGGTT,1.72
6,CGCCGTTT,0.236
7,AATCGGCG,1.6
8,TGTCGGGC,1.48
9,GCACGAAC,1.39
10,GCGCGTTT,0.478
11,TAACGTGG,0.473
12,GTCCGTTA,0.801
13,TCGCGAAT,0.679
14,TTCCGGAC,1.57
15,TTGCGTGG,0.257
16,CGACGTCG,0.941
17,AGTCGTAT,0.304
18,TCCCGCCT,1.02
19,CTGCGTGC,0.956
20,AGGCGCAC,0.425
21,GATCGTAT,0.543
22,ATCCGCTT,1.12
23,CTCCGCAG,0.55
24,ATACGTGG,0.556
25,GGGCGGCC,0.89

row,Sequence,relative CpG methylation activity
1,ATCCGATG,1.39
2,CTGCGACT,1.54
3,TATCGAGA,1.69
4,CGCCGGGC,1.18
5,TTTCGCTG,0.895
6,ATTCGCCA,0.989
7,CTTCGAGC,1.79
8,CTCCGAGT,1.99
9,ATCCGCCT,1
10,TGTCGTTG,0.219
11,ACCCGCGC,0.569
12,AATCGCCT,0.933
13,ACCCGAAG,1.11
14,TGGCGAAG,0.444
15,GGGCGCCG,0.595
16,GTACGTCC,1.5
17,TCACGTGT,0.575
18,TTACGGCG,2.25
19,AATCGCAG,0.452
20,CTCCGCCG,1.14
21,ACGCGATA,1.19
22,TGCCGCGG,0.2
23,GGGCGATA,0.723
24,CGGCGTTT,0.454
25,GTGCGAAT,1.22

row,Sequence,relative CpG methylation activity
1,GGCCGCTG,0.227
2,CACCGTTA,0.391
3,AGGCGCTA,0.214
4,CGTCGGGT,0.965
5,ATACGGTG,1.75
6,GTTCGGGC,1.53
7,GTACGTGA,0.765
8,TGACGTCT,0.919
9,CTTCGCAT,0.762
10,GTGCGCTA,0.474
11,AAACGACT,1.49
12,TGCCGACA,0.803
13,ACCCGGAA,0.948
14,AGCCGCAA,0.129
15,TCACGAGA,1.96
16,TGGCGCCA,0.525
17,AGTCGGCC,1.69
18,AAACGAGT,1.79
19,ATCCGATT,1.56
20,CTCCGCAC,1.34
21,CTGCGTGG,0.781
22,CTTCGACT,1.54
